Reference: PubChem BioAssay AID493208 (National Center for Advancing Translational Sciences (NCATS), 2011)
Hit rate of the full screen: of about 44,000 compounds, about 340 (0.77%) were called active. Another 5% or so got no clear call; they are omitted. Calls follow the shape of the dose curve; as a rule, active = well fitted inhibition curve with a large enough effect; inconclusive = small, poorly fitted or top-dose-only effect; inactive = flat fitted curve, though single readings scatter. The list shows a part of the results.

Test: Acumen qHTS Assay for Inhibitors of the mTORC1 Signaling Pathway in MEF (Tsc2-/-, p53-/-) Cells: Sytravon; also: nearly all actives have a fitted effect of over 50% in size
Conditions: phospho-rpS6 immunofluorescence/PI, 24 h; series mostly up to 38.3 µM; activity change, negative = inhibition: at the top concentration
In short: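 Read-out: phospho-S6 Alexa-488 intensity over PI intensity per well, scored as % active cells using thresholds from rapamycin (7.5 nM) and DMSO controls. Tsc2-/-, p53-/- MEFs exposed to compound for 24 h; PI cell count recorded as viability.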

Activity change, negative = inhibition, inactive:
O=C(c1ccco1)N1CCN(c2nc3c(Cl)cccc3s2)CC1 -4.31%
COc1cccc(C(=O)Nc2ccccc2-c2nnc(-c3cc(OC)ccc3Br)o2)c1 6.26%
O=C(Cc1ccc(Cl)cc1)NCC(c1cccs1)S(=O)(=O)c1ccc(F)cc1 (stereo unspecified) 1.64%
Cn1cnc(S(=O)(=O)N2CCC(C(=O)NCc3ccc(F)cc3)CC2)c1 11.2%
COc1ccc(C2=C(C)C(=O)N(Cc3ccc(C(=O)Nc4cc(C)ccc4C)cc3)S2(=O)=O)cc1 -8.45%
Cc1nn2c(=O)cc(COC(=O)c3cccc(NC(=O)c4ccc(C(C)(C)C)cc4)c3)nc2s1 0%
COc1cccc(C(=O)Nc2ccc3nc(N4CCC(C)CC4)cc(C)c3c2)c1 -12.7%
CCOC(=O)c1[nH]c2c(c1Cc1ccccc1OC)C(=O)CC(c1ccc(OCC)cc1)C2 (stereo unspecified) 0.306%
COc1ccc(C(=O)CCC(=O)Nc2ccc(OC)c(Cl)c2)cc1 -6.5%
COc1ccc(C2=CC(c3cccc(C)c3)n3nnnc3N2)cc1 (stereo unspecified) -1.23%
CCN(CC)S(=O)(=O)c1ccc2c(c1)N(CC(=O)Nc1ccc(C)cc1C)C(=O)C1CCCN21 (stereo unspecified) 0%
CC(C)NC(=O)c1ccccc1NC(=O)c1nsc2ccccc12 -1.21%
COc1ccccc1N1CCN(c2nc3ccc(C)cc3n3nnnc23)CC1 -2.06%
Cc1ccc(S(=O)(=O)c2nc(S(C)(=O)=O)sc2NCc2ccccc2)cc1 -3.86%
CCOC(=O)c1c(C)oc2nc(C)nc(NCCc3ccc(SC)cc3)c12 2.81%
O=C(Cc1ccc(NC(=O)N2CCCCc3ccccc32)cc1)NCc1ccccc1 -27.8%
CCCCN(CCCC)CCNC(=O)c1cc(-c2cccnc2)nc2ccc(S(=O)(=O)N3CCC(C)CC3)cc12 -0.694%
CCOc1ccc2nc(N3CCCC(C(=O)Nc4cccc(Cl)c4C)C3)sc2c1 (stereo unspecified) -8.03%
CCc1cc2c(cc3c(=O)n(CC(=O)N4CCCCC4)ncn32)s1 -7.59%
Cc1ccc(Cl)cc1NC(=O)CN1C(=O)COc2ccc(S(=O)(=O)N3CCOCC3)cc21 1.58%
CCCCn1cc(S(=O)(=O)c2ccc(F)cc2)c(=O)c2ccccc21 -0.792%
COc1ccccc1CNC(=O)c1ccc(-c2nc(CS(=O)c3ccccc3)c(C)o2)cc1 (stereo unspecified) -1.74%
Cc1cc(F)ccc1NC(=O)C1CCCN(S(=O)(=O)c2ccc3c(c2)CCCC(=O)N3)C1 (stereo unspecified) -0.0858%
Cc1cnc2c(c1SCC(=O)Nc1ccc(F)cc1F)c(=O)n(C)c(=O)n2C -0.954%
COc1ccc(N(Cc2cccs2)C(=O)COc2ccc(C(C)C)cc2)cc1 -15.9%
COc1ccc(S(=O)(=O)c2c(Nc3ccc(C)cc3)sc(C(=O)c3ccc4c(c3)OCO4)c2N)cc1 0.394%
CN(C)c1ccc(CN(CC2CCCO2)C(=O)c2ccc(Br)cc2)cc1 (stereo unspecified) 2.83%
Cc1ccc2[nH]c3c(=O)n(CC(=O)N4CCN(c5cccc(C(F)(F)F)c5)CC4)ncc3c2c1 -3.13%
CCOc1ccc(N2C(=O)N(Cc3c(F)cccc3Cl)c3ccccc3S2(=O)=O)cc1 -6.79%
COc1cccc(CNC(=O)CN2C(=O)CSc3c2c(C)nn3-c2ccccc2)c1 -4.18%
Cc1ccc(-n2c(=O)c3ccc(C(=O)NCc4ccccc4Cl)cc3n(CC(=O)Nc3cccc(F)c3)c2=O)cc1 0.981%
Cc1ccc2[nH]c(CSc3nnc(COc4ccccc4C)n3C)cc(=O)c2c1 -14.2%
O=C(COCc1cc(-c2cccs2)on1)Nc1ccc(OC(F)(F)F)cc1 -2.57%
CCCCOc1ccc(NC(=O)Cn2nnnc2-c2ccccc2F)cc1 0.999%
Cc1cc2c(cc1C)NC(CC(=O)Nc1ccccc1SC(F)(F)F)C(=O)N2 (stereo unspecified) -17.5%
COc1cc(OC)c(NC(=O)Cn2cnc3sc(C)c(S(=O)(=O)N4CCN(C)CC4)c3c2=O)cc1Cl -0.962%
Cc1ccc(S(=O)(=O)c2nc(-c3ccco3)oc2SCC(C)C)cc1 -11.8%
COc1ccc2ncc3c(-c4ccc(C)c(C)c4)nn(CC(=O)NC4CCCCC4)c3c2c1 -0.476%
CCc1ccc(NC(=O)c2nn(-c3ccc(C)cc3)c(=O)n(C)c2=O)cc1 2.97%
CC(C)(C)OC(=O)N1CCC(c2c(C(=O)Nc3ccc4c(c3)OCCO4)cnn2-c2ccccc2)CC1 3.92%
COC(=O)NCc1c(C)nn(-c2ccccc2)c1-n1cccc1 -10.4%
COc1ccc(CNC(=O)c2cc3c(s2)-c2c(C)cccc2OC3)cc1 0.0447%
CCOC(=O)c1oc2c(c1C)-c1nn(Cc3ccccc3Cl)cc1CC2 -2.52%
Cc1ccc(C)c(NC(=O)C(=O)NCCc2csc3nc(-c4ccccc4C)nn23)c1 -9.22%
Cn1c(=O)n(-c2cccc(Cl)c2)c(=O)c2sc3ccccc3c21 -18.4%
Cc1cc(NC(=O)Cn2nc(C)n3cccc3c2=O)ccc1Br -6.53%
CCOC(=O)N1CCC2(CC1)OC(=O)C(C)=C2C(=O)NCc1cccc(OC)c1 -1.45%
COc1ccc(NC(=O)CC2C(=O)N(c3ccc(C)cc3)C(=O)N2Cc2cccnc2)cc1 (stereo unspecified) -17.4%
CNC(=O)c1sc2ncccc2c1-n1cccc1 1.37%
Cc1cccc(-n2ncc(C(=O)NCc3ccccn3)c2C2CCN(C(=O)OC(C)(C)C)CC2)c1 5.18%
CCCCN1C(=O)CN(C2CCCCC2)C(=O)C1c1ccc(OC(C)C)c(OC)c1 (stereo unspecified) 4.2%
CCN1CCN(Cc2c(O)ccc3c(C)c(-c4ccccc4)c(=O)oc23)CC1 -0.633%
COc1ccc(CNc2cc(-c3ccc(OC)cc3)nc3nncn23)cc1 -18.1%
O=C(CSc1nc2c(c(=O)[nH]1)CCCC2)Nc1ccc(Br)cc1 -0.589%
Cc1ccc(C)c(N2CCN(c3nc4ccccc4n4c(C)nnc34)CC2)c1 4.36%
Cc1ccc(NC(=O)C(c2ccccc2)N2Cc3ccccc3C2=O)cc1Cl (stereo unspecified) 4.78%
Cc1ccc(NC(=O)Cn2c(=O)n(CCC(=O)NCc3ccc4c(c3)OCO4)c(=O)c3sccc32)c(C)c1 10.3%
Cc1ccccc1CNC(=O)c1oc2c(c1C)-c1[nH]ncc1CC2 0.778%
Cc1ccccc1Nc1nn2c(=O)c3ccc(C(=O)NCCc4ccc(Cl)cc4)cc3nc2s1 -2.52%
Cc1ccc2nc(Cl)c3cc(C(=O)N4CCCCC4C)sc3c2c1 (stereo unspecified) -4.9%
CC(C)C1C(=O)Nc2ccc(S(=O)(=O)NCCc3ccc(Cl)cc3)cc21 (stereo unspecified) 1.41%
COc1ccc(Cl)cc1NC(=O)CN1C(=O)C(C)(C)c2cc(S(=O)(=O)N3CCCCC3)ccc21 -1.42%
Cc1cccc(-n2ncc(C(=O)N3CCN(c4ccc(C)cc4C)CC3)c2C2CCN(C(=O)OC(C)(C)C)CC2)c1 -8.67%
Cc1ccsc1CN(C(=O)c1oc2ccc(Br)cc2c1C)C1CCS(=O)(=O)C1 (stereo unspecified) -7.74%
Cc1cn(C)c(CC(=O)NCc2ccccc2)c1C(=O)O -1.78%
CCOc1ccc(Nc2c(S(=O)(=O)c3ccc(Cl)cc3)cnc3ccc(OCC)cc23)cc1 -4.15%
CCN1c2ccccc2-c2nc(SCC(=O)NCc3ccc(Cl)cc3)ncc2S1(=O)=O 0.724%
CCOc1ccc(C2c3c(oc4ccc(C)cc4c3=O)C(=O)N2CCCN2CCOCC2)cc1 (stereo unspecified) -2.79%
O=C(CC1C(=O)N(c2ccccc2)C(=O)N1CCc1cccs1)Nc1ccc(F)cc1 (stereo unspecified) -2.14%
O=C(CCCn1c(=O)c2cccn2c2cccnc21)NCc1ccccc1Br -10.2%
CSc1ncc(C(=O)N2CCN(c3cccc(Cl)c3)CC2)c(C)n1 -0.777%
Cc1c(C)n(Cc2ccc(F)cc2)c2ccc(C(=O)NCc3ccco3)cc12 -17.8%
CCOc1ccc(CCNC(=O)Cn2nnc(-c3ccccc3Cl)n2)cc1OCC 3.88%
O=C(NCCN1CCN(c2cccc(Cl)c2)CC1)Nc1ccccc1C(F)(F)F -1.26%
Cc1ccc(CNc2nc(-c3ccco3)nn2S(=O)(=O)c2ccc3ccccc3c2)cc1 -0.805%
O=C(CSc1ncc(-c2ccccc2)[nH]1)Nc1ccc(Cl)cc1 -28.2%
Cc1ccc(S(=O)(=O)Nc2cc3c(cc2NCc2ccccc2)n(C)c(=O)n3C)cc1 1.15%
O=C(Cn1c(=O)nc(-c2ccccc2)c2cc(Cl)ccc21)N1CCN(c2ccccc2F)CC1 3.07%
CC(C)COc1ccc(C(=O)N2CCCCC2CCN2CCCCC2)cc1 (stereo unspecified) -5.76%
COc1ccc(CCNC(=O)c2cnn(-c3cccc(C)c3)c2C2CCN(C(=O)OC(C)(C)C)CC2)cc1OC -0.561%
COc1cccc2c1ncc1c(-c3ccc(C)cc3)nn(-c3ccc(F)cc3)c12 0.604%
Cc1cccc(-c2nnn3c2nc(NCc2ccc4c(c2)OCO4)c2ccccc23)c1 -10.8%
CC(=O)c1ccc(NC(=O)c2noc3c2CSc2ccccc2-3)cc1 0.228%
Cc1ccc(Cl)cc1N1CCN(C(=O)c2c(C)oc3ncnc(N4CCCCC4)c23)CC1 1.88%
CCc1cc(C(=O)Nc2sc(C)c(CC)c2C#N)no1 -17.2%
CCc1ccc(CN2CCc3nc(N4CCN(c5ccccc5F)CC4)ncc3C2)cc1 1.97%
CCCCOc1cccc(C(=O)Nc2cc(NC(=O)c3ccco3)ccc2OC)c1 -0.37%
COc1cccc(NC(=O)CCc2c(C)nc3nc(CNC(=O)c4cccc(F)c4)nn3c2C)c1 -1.69%
CCc1ccc(C2=C(C)C(N3CCC(C(=O)NCc4ccccc4)CC3)=NS2(=O)=O)cc1 0.463%
Cc1ccc(CNC(=O)c2c(O)nc3cc(C)ccn3c2=O)cc1 0.552%
COc1ccc(-c2cnc(C)o2)cc1S(=O)(=O)Nc1c(C)cc(C)cc1C 0%
CC(c1ccccc1)n1cc2c(c1-c1ccccc1Br)c(=O)n(C)c(=O)n2C (stereo unspecified) -12.2%
C#CCOc1ccc(-c2nnc(Nc3ccc(NC(C)=O)cc3)c3ccccc23)cc1 -3.03%
CCOC(=O)N1CCC(NC(=O)c2cnn(-c3cccc(F)c3)c2-n2cccc2)CC1 10%
Cc1c(Cl)cccc1NC(=O)C1CCCN(c2ncnc3onc(C)c23)C1 (stereo unspecified) 4.71%
NS(=O)(=O)c1ccc(CCNc2ncnc3c2cnn3-c2cccc(Cl)c2)cc1 2.67%
